For experiment [1], the target named is T1, 5T4-Fc (obtained from Peter L. Stern, University of Manchester) (human, UniProt Q13641 32-355).
T1 construct: also called h5T4-Fc; recombinant 5T4; not shown: Fc part not specified
T1 sequence (looked up): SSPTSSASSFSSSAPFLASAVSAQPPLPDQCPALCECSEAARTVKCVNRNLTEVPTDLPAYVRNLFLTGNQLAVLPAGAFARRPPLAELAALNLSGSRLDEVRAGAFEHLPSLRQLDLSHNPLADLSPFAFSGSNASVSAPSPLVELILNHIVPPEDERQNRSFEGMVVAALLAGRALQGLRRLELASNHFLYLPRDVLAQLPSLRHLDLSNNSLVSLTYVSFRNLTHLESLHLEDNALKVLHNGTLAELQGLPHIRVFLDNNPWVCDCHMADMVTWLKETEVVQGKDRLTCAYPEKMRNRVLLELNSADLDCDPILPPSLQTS
Briefly: dual ELISA: coated 5T4-Fc, detection with CD137-bio. The method, then: Plates (#655074, Greiner Bio-One GmbH, Germany) were pre-coated with 0.5 μg/ml 5T4-Fc (obtained from Professor Peter Stern, University of Manchester) overnight. CD137-5T4 bsAb were diluted from 8 to 2×10⁻³ μg/ml in 1:4 dilutions and added in duplicates of 50 μl to each well. CD137-bio (Ancell #502-030) was used as detection antibody at 0.5 μg/ml and the binding was detected with Streptavidin-HRP (Pierce #21126). The ELISA was developed with SuperSignal ELISA PICO Chemiluminescent substrate (Thermo Scientific Pierce, Rockford, Ill. USA) during 2-10 minutes and read in an automated microplate based multi-detection reader (FLUOstar OPTIMA, Netherlands).

The target in the next experiment is biotinylated CD137 (UniProt Q07011 24-186, limits assumed, biotinylated). In words: SPR MASS-1, biotinylated antigen on chip, bsAb injected.
In experiment [2] the target is T2, 5T4 on the SPR chip (amine-coupled on Biacore; biotinylated on MASS-1) (UniProt Q13641 32-355, limits assumed, biotinylated in the MASS-1 assays).
T2 construct: also called biotinylated 5T4
T2 sequence (looked up): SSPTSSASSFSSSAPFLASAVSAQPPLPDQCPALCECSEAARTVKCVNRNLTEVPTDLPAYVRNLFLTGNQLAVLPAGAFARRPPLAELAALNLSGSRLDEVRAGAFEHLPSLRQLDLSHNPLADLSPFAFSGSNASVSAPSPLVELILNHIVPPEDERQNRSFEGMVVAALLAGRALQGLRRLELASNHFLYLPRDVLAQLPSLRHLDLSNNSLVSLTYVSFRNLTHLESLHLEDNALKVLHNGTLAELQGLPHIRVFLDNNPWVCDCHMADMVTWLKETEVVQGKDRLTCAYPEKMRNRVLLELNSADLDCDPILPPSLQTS
Described as above.

The source of these data is patent US20220213213A1 (published 2022).

biotinylated CD137, sequence (Q07011 24-186 limits assumed): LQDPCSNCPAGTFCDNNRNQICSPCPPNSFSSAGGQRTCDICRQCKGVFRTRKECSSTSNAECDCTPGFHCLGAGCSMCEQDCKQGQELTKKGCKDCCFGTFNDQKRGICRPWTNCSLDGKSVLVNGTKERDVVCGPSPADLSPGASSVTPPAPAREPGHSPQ

B1: 1200-1212 (bispecific antibody)
heavy: EVQLLESGGGLVQPGGSLRLSCAASGFTFSSYAMSWVRQAPGKGLEWVSGISGGGGGTYYADSVKGRFTISRDNSKNTLYLQMNSLRAEDTAVYYCARDVAYFDYWGQGTLVTVSS[no letters for human IgG1 constant region with changes]GGGGSGGGGSEVQLLESGGGLVQPGGSLRLSCAASGFTFSSYAMSWVRQAPGKGLEWVSYISSYGGYTSYADSVKGRFTISRDNSKNTLYLQMNSLRAEDTAVYYCARYHSGVLDYWGQGTLVTVSSGGGGSGGGGSGGGGSDIQMTQSPSSLSASVGDRVTITCRASQSISSYLNWYQQKPGKAPKLLIYAASSLQSGVPSRFSGSGSGTDFTLTISSLQPEDFATYYCQQYYYHYLLTFGQGTKLEIK
light: DIQMTQSPSSLSASVGDRVTITCRASQSISSYLNWYQQKPGKAPKLLIYAASSLQSGVPSRFSGSGSGTDFTLTISSLQPEDFATYYCQQYYIPHTFGQGTKLEIKRTVAAPSVFIFPPSDEQLKSGTASVVCLLNNFYPREAKVQWKVDNALQSGNSQESVTEQDSKDSTYSLSSTLTLSKADYEKHKVYACEVTHQGLSSPVTKSFNRGEC
In experiment [1], B1 yielded a 50% effective concentration (EC50) of 1550 pM. In other words, the single-digit nanomolar range.

B2: 1202-1212 (bispecific antibody)
heavy: EVQLLESGGGLVQPGGSLRLSCAASGFTFYGSSMSWVRQAPGKGLEWVSSIYYGSSGTYYADSVKGRFTISRDNSKNTLYLQMNSLRAEDTAVYYCARSYYGYFDYWGQGTLVTVSS[no letters for human IgG1 constant region with changes]GGGGSGGGGSEVQLLESGGGLVQPGGSLRLSCAASGFTFSSYAMSWVRQAPGKGLEWVSYISSYGGYTSYADSVKGRFTISRDNSKNTLYLQMNSLRAEDTAVYYCARYHSGVLDYWGQGTLVTVSSGGGGSGGGGSGGGGSDIQMTQSPSSLSASVGDRVTITCRASQSISSYLNWYQQKPGKAPKLLIYAASSLQSGVPSRFSGSGSGTDFTLTISSLQPEDFATYYCQQYYYHYLLTFGQGTKLEIK
light: DIQMTQSPSSLSASVGDRVTITCRASQSISSYLNWYQQKPGKAPKLLIYAASSLQSGVPSRFSGSGSGTDFTLTISSLQPEDFATYYCQQYYTVVPFTFGQGTKLEIKRTVAAPSVFIFPPSDEQLKSGTASVVCLLNNFYPREAKVQWKVDNALQSGNSQESVTEQDSKDSTYSLSSTLTLSKADYEKHKVYACEVTHQGLSSPVTKSFNRGEC
In experiment [1], B2 returned an EC50 of 1670 pM.

B3: 1212-1214 (bispecific antibody)
heavy: EVQLLESGGGLVQPGGSLRLSCAASGFTFSSYAMSWVRQAPGKGLEWVSYISSYGGYTSYADSVKGRFTISRDNSKNTLYLQMNSLRAEDTAVYYCARYHSGVLDYWGQGTLVTVSS[no letters for human IgG1 constant region with changes]GGGGSGGGGSEVQLLESGGGLVQPGGSLRLSCAASGFTFSSYAMSWVRQAPGKGLEWVSSIGSGGGYTGYADSVKGRFTISRDNSKNTLYLQMNSLRAEDTAVYYCARVGHPFDYWGQGTLVTVSSGGGGSGGGGSGGGGSDIQMTQSPSSLSASVGDRVTITCRASQSISSYLNWYQQKPGKAPKLLIYAASSLQSGVPSRFSGSGSGTDFTLTISSLQPEDFATYYCQQDAYPHTFGQGTKLEIK
light: DIQMTQSPSSLSASVGDRVTITCRASQSISSYLNWYQQKPGKAPKLLIYAASSLQSGVPSRFSGSGSGTDFTLTISSLQPEDFATYYCQQYYYHYLLTFGQGTKLEIKRTVAAPSVFIFPPSDEQLKSGTASVVCLLNNFYPREAKVQWKVDNALQSGNSQESVTEQDSKDSTYSLSSTLTLSKADYEKHKVYACEVTHQGLSSPVTKSFNRGEC
On to B3, for which a half-maximal effect in experiment [1] (EC50) was put at 790 pM.

B4: 1204-1212 (bispecific antibody)
heavy: EVQLLESGGGLVQPGGSLRLSCAASGFTFSSYYMGWVRQAPGKGLEWVSGIGSYYGYTGYADSVKGRFTISRDNSKNTLYLQMNSLRAEDTAVYYCARAYYDYNYYYAYFDYWGQGTLVTVSS[no letters for human IgG1 constant region with changes]GGGGSGGGGSEVQLLESGGGLVQPGGSLRLSCAASGFTFSSYAMSWVRQAPGKGLEWVSYISSYGGYTSYADSVKGRFTISRDNSKNTLYLQMNSLRAEDTAVYYCARYHSGVLDYWGQGTLVTVSSGGGGSGGGGSGGGGSDIQMTQSPSSLSASVGDRVTITCRASQSISSYLNWYQQKPGKAPKLLIYAASSLQSGVPSRFSGSGSGTDFTLTISSLQPEDFATYYCQQYYYHYLLTFGQGTKLEIK
light: DIQMTQSPSSLSASVGDRVTITCRASQSISSYLNWYQQKPGKAPKLLIYAASSLQSGVPSRFSGSGSGTDFTLTISSLQPEDFATYYCQQSVPHYPFTFGQGTKLEIKRTVAAPSVFIFPPSDEQLKSGTASVVCLLNNFYPREAKVQWKVDNALQSGNSQESVTEQDSKDSTYSLSSTLTLSKADYEKHKVYACEVTHQGLSSPVTKSFNRGEC
For the molecule B4, the EC50 in experiment [1] was 1010 pM. The EC50 values of the last two molecules are within 1.5-fold of each other.

B5: 1212-1202 (bispecific antibody)
heavy: EVQLLESGGGLVQPGGSLRLSCAASGFTFSSYAMSWVRQAPGKGLEWVSYISSYGGYTSYADSVKGRFTISRDNSKNTLYLQMNSLRAEDTAVYYCARYHSGVLDYWGQGTLVTVSS[no letters for human IgG1 constant region with changes]GGGGSGGGGSEVQLLESGGGLVQPGGSLRLSCAASGFTFYGSSMSWVRQAPGKGLEWVSSIYYGSSGTYYADSVKGRFTISRDNSKNTLYLQMNSLRAEDTAVYYCARSYYGYFDYWGQGTLVTVSSGGGGSGGGGSGGGGSDIQMTQSPSSLSASVGDRVTITCRASQSISSYLNWYQQKPGKAPKLLIYAASSLQSGVPSRFSGSGSGTDFTLTISSLQPEDFATYYCQQYYTVVPFTFGQGTKLEIK
light: DIQMTQSPSSLSASVGDRVTITCRASQSISSYLNWYQQKPGKAPKLLIYAASSLQSGVPSRFSGSGSGTDFTLTISSLQPEDFATYYCQQYYYHYLLTFGQGTKLEIKRTVAAPSVFIFPPSDEQLKSGTASVVCLLNNFYPREAKVQWKVDNALQSGNSQESVTEQDSKDSTYSLSSTLTLSKADYEKHKVYACEVTHQGLSSPVTKSFNRGEC
Turning to B5, the EC50 in experiment [1] turned out to be 570 pM.

B6: 1212-1204 (bispecific antibody)
heavy: EVQLLESGGGLVQPGGSLRLSCAASGFTFSSYAMSWVRQAPGKGLEWVSYISSYGGYTSYADSVKGRFTISRDNSKNTLYLQMNSLRAEDTAVYYCARYHSGVLDYWGQGTLVTVSS[no letters for human IgG1 constant region with changes]GGGGSGGGGSEVQLLESGGGLVQPGGSLRLSCAASGFTFSSYYMGWVRQAPGKGLEWVSGIGSYYGYTGYADSVKGRFTISRDNSKNTLYLQMNSLRAEDTAVYYCARAYYDYNYYYAYFDYWGQGTLVTVSSGGGGSGGGGSGGGGSDIQMTQSPSSLSASVGDRVTITCRASQSISSYLNWYQQKPGKAPKLLIYAASSLQSGVPSRFSGSGSGTDFTLTISSLQPEDFATYYCQQSVPHYPFTFGQGTKLEIK
light: DIQMTQSPSSLSASVGDRVTITCRASQSISSYLNWYQQKPGKAPKLLIYAASSLQSGVPSRFSGSGSGTDFTLTISSLQPEDFATYYCQQYYYHYLLTFGQGTKLEIKRTVAAPSVFIFPPSDEQLKSGTASVVCLLNNFYPREAKVQWKVDNALQSGNSQESVTEQDSKDSTYSLSSTLTLSKADYEKHKVYACEVTHQGLSSPVTKSFNRGEC
Regarding B6, a half-maximal effect in experiment [1] (EC50) was put at 270 pM.

B7: 1618-1210 (bispecific antibody)
heavy: EVQLLESGGGLVQPGGSLRLSCAASGFTFSYGSMYWVRQAPGKGLEWVSSISSGSGSTYYADSVKGRFTISRDNSKNTLYLQMNSLRAEDTAVYYCARSSYYGSYYSIDYWGQGTLVTVSS[no letters for human IgG1 constant region with changes]GGGGSGGGGS[no letters for about 100 residues]YYGGYYSAWMDYWGQGTLVTVSSGGGGSGGGGSGGGGSDIQMTQSPSSLSASVGDRVTITCRASQSISSYLNWYQQKPGKAPKLLIYAASSLQSGVPSRFSGSGSGTDFTLTISSLQPEDFATYYCQQTYGYLHTFGQGTKLEIK
light: DIQMTQSPSSLSASVGDRVTITCRASQSISSYLNWYQQKPGKAPKLLIYAASSLQSGVPSRFSGSGSGTDFTLTISSLQPEDFATYYCQQYYDNLPTFGQGTKLEIKRTVAAPSVFIFPPSDEQLKSGTASVVCLLNNFYPREAKVQWKVDNALQSGNSQESVTEQDSKDSTYSLSSTLTLSKADYEKHKVYACEVTHQGLSSPVTKSFNRGEC
B7: the response in experiment [1] was half-maximal at 200 pM (EC50). In the experiment with biotinylated CD137, the Kd was 129 pM, the off-rate (koff) came to 0.000162 s⁻¹ and the kon stood at 1.26e+06 M⁻¹ s⁻¹. In experiment [2], this molecule had a Kd of 937 pM, a koff of 0.000455 s⁻¹ and an on-rate constant (kon) of 486000 M⁻¹ s⁻¹.

B8: 1618-1208 (bispecific antibody)
chain 1: not shown
chain 2: DIQMTQSPSSLSASVGDRVTITCRASQSISSYLNWYQQKPGKAPKLLIYAASSLQSGVPSRFSGSGSGTDFTLTISSLQPEDFATYYCQQYYDNLPTFGQGTKLEIKRTVAAPSVFIFPPSDEQLKSGTASVVCLLNNFYPREAKVQWKVDNALQSGNSQESVTEQDSKDSTYSLSSTLTLSKADYEKHKVYACEVTHQGLSSPVTKSFNRGEC
In the experiment with biotinylated CD137, B8 had a dissociation constant (Kd) of 116 pM, a dissociation rate constant (koff) of 0.000109 s⁻¹ and an on-rate constant (kon) of 940000 M⁻¹ s⁻¹.

The EC50 is the concentration that produces a half-maximal response. Lower therefore signals greater potency. The term Kd denotes the equilibrium constant for the complex coming apart. Low values mean higher affinity, high ones lower affinity. One may read the koff as the first-order rate constant of dissociation. As a reminder, the kon is the rate constant with which the complex forms.
